{"source": "the supplement of paper PMC8821664", "note": "Counter-ions that a name gives are not always drawn. The list shows a part of the results. Most values come without repeats; read them as rough.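 Note: monoclonal Beas-2B line stably carrying CMV promoter-driven AQP5-HiBiT, 5,000 cells per well in 384-well plates, lytic HiBiT plus LgBiT NanoLuc luminescence, FDA-approved drug library screen.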", "data": [{"system": "Beas-2B AQP5-HiBiT reporter cells", "experiment": "AQP5-HiBiT luminescence relative to vehicle (ratio to vehicle); higher = higher AQP5-HiBiT protein abundance", "conditions": "10 µM; 18 h", "values": [{"smiles": "CC1(C)S[C@@H]2[C@H](NC(=O)COc3ccccc3)C(=O)N2[C@H]1C(=O)O", "note": "[Penicillin V potassium salt]", "AQP5-HiBiT luminescence": 0.952}, {"smiles": "C[N+]1(C)[C@@H]2C[C@@H](OC(=O)C(O)(c3cccs3)c3cccs3)C[C@H]1[C@@H]1O[C@@H]12", "note": "[Tiotropium bromide]", "AQP5-HiBiT luminescence": 1.05}, {"smiles": "CC(=O)c1ccc2c(c1)N(CCCN1CCC(CCO)CC1)c1ccccc1S2", "note": "[Piperacetazine]", "AQP5-HiBiT luminescence": 3.04}, {"smiles": "C/C=C(/C(=C/C)c1ccc(O)cc1)c1ccc(O)cc1", "note": "[Dienestrol]", "AQP5-HiBiT luminescence": 1.28}, {"smiles": "CCCCC(CC)COC(=O)C(C#N)=C(c1ccccc1)c1ccccc1", "note": "(centres undefined) [Octocrilene]", "AQP5-HiBiT luminescence": 0.7}, {"smiles": "CN(C)CC(c1ccc(O)cc1)C1(O)CCCCC1", "note": "(centres undefined) [Desvenlafaxine]", "AQP5-HiBiT luminescence": 0.888}, {"smiles": "CCC(C)n1ncn(-c2ccc(N3CCN(c4ccc(OCC5COC(Cn6cncn6)(c6ccc(Cl)cc6Cl)O5)cc4)CC3)cc2)c1=O", "note": "(centres undefined) [Itraconazole]", "AQP5-HiBiT luminescence": 1.38}, {"smiles": "CCN(CC)CC#CCOC(=O)C(O)(c1ccccc1)C1CCCCC1", "note": "(centres undefined) [Oxybutynin hydrochloride]", "AQP5-HiBiT luminescence": 1.14}, {"smiles": "CN1CCC(=C2c3ccccc3CCc3cccnc32)CC1", "note": "[Azatadine Maleate]", "AQP5-HiBiT luminescence": 1.09}, {"smiles": "Cc1cccc(C)c1OCC(=O)N[C@@H](Cc1ccccc1)[C@@H](O)C[C@H](Cc1ccccc1)NC(=O)[C@H](C(C)C)N1CCCNC1=O", "note": "[Lopinavir]", "AQP5-HiBiT luminescence": 0.98}, {"smiles": "O=C(CCCN1CC=C(n2c(=O)[nH]c3ccccc32)CC1)c1ccc(F)cc1", "note": "[Droperidol]", "AQP5-HiBiT luminescence": 1.15}, {"smiles": "C[N+]1(C)CCC(OC(=O)C(O)(c2ccccc2)C2CCCC2)C1", "note": "(centres undefined) [Glycopyrrolate]", "AQP5-HiBiT luminescence": 0.665}, {"smiles": "CC(C)c1nc(CN(C)C(=O)N[C@H](C(=O)N[C@@H](Cc2ccccc2)C[C@H](O)[C@H](Cc2ccccc2)NC(=O)OCc2cncs2)C(C)C)cs1", "note": "[Ritonavir]", "AQP5-HiBiT luminescence": 0.807}, {"smiles": "O=C1[C@H](CC[C@H](O)c2ccc(F)cc2)[C@@H](c2ccc(O)cc2)N1c1ccc(F)cc1", "note": "[Ezetimibe]", "AQP5-HiBiT luminescence": 0.803}, {"smiles": "C=C1CCN([C@H](C)[C@](O)(Cn2cncn2)c2ccc(F)cc2F)CC1", "note": "[Efinaconazole]", "AQP5-HiBiT luminescence": 0.638}, {"smiles": "CCCC(CCC)C(=O)O", "note": "[Valerin]", "AQP5-HiBiT luminescence": 0.918}, {"smiles": "O=C1CCc2cc(OCCCCc3nnnn3C3CCCCC3)ccc2N1", "note": "[Cilostazol]", "AQP5-HiBiT luminescence": 0.983}, {"smiles": "CCCC(=O)Nc1ccc(OCC(O)CNC(C)C)c(C(C)=O)c1", "note": "(centres undefined) [Acebutolol hydrochloride]", "AQP5-HiBiT luminescence": 0.678}, {"smiles": "CC(C)Cc1ccc(C(C)C(=O)O)cc1", "note": "(centres undefined) [Ibuprofen]", "AQP5-HiBiT luminescence": 1.09}, {"smiles": "CNC[C@H](O)c1ccc(O)c(O)c1", "note": "[Epinephrine bitartrate]", "AQP5-HiBiT luminescence": 0.782}, {"smiles": "Cc1ccc(C(=O)Nc2ccc(CN3CCN(C)CC3)c(C(F)(F)F)c2)cc1C#Cc1cnc2cccnn12", "AQP5-HiBiT luminescence": 0.271}, {"smiles": "CCCNCC(O)COc1ccccc1C(=O)CCc1ccccc1", "note": "(centres undefined) [Propafenone]", "AQP5-HiBiT luminescence": 1.24}, {"smiles": "Cc1cnc(C(=O)NCCc2ccc(S(=O)(=O)NC(=O)NC3CCCCC3)cc2)cn1", "note": "[Glipizide]", "AQP5-HiBiT luminescence": 1.09}, {"smiles": "N=C(N)NS(=O)(=O)c1ccc(N)cc1", "note": "[Sulfaguanidine]", "AQP5-HiBiT luminescence": 0.952}, {"smiles": "Nc1ccc(S(=O)(=O)Nc2ccccn2)cc1", "note": "[Sulfapyridine]", "AQP5-HiBiT luminescence": 1.14}, {"smiles": "O=c1[nH]cc(F)c(=O)[nH]1", "note": "[Fluorouracil (5-Fluoracil, 5-FU)]", "AQP5-HiBiT luminescence": 0.716}, {"smiles": "COc1ccc(-c2ccc3cc(C(=O)O)ccc3c2)cc1C12CC3CC(CC(C3)C1)C2", "note": "[Adapalene]", "AQP5-HiBiT luminescence": 1.87}, {"smiles": "CC(=O)Nc1cccc(-n2c(=O)n(C3CC3)c(=O)c3c(Nc4ccc(I)cc4F)n(C)c(=O)c(C)c32)c1", "AQP5-HiBiT luminescence": 0.762}, {"smiles": "O=C(O)c1cc(/N=N/c2ccc(O)c(C(=O)O)c2)ccc1O", "note": "[Olsalazine disodium]", "AQP5-HiBiT luminescence": 0.71}, {"smiles": "CCC(=O)O[C@]1(C(=O)CCl)[C@@H](C)C[C@H]2[C@@H]3CCC4=CC(=O)C=C[C@]4(C)[C@@]3(F)[C@@H](O)C[C@@]21C", "note": "[Clobetasol propionate]", "AQP5-HiBiT luminescence": 0.697}, {"smiles": "CCCCNc1ccc(C(=O)OCCN(C)C)cc1", "note": "[Tetracaine hydrochloride]", "AQP5-HiBiT luminescence": 0.843}, {"smiles": "CCCCCCOC(=O)NC(=N)c1ccc(NCc2nc3cc(C(=O)N(CCC(=O)OCC)c4ccccn4)ccc3n2C)cc1", "note": "[Dabigatran etexilate]", "AQP5-HiBiT luminescence": 0.63}, {"smiles": "CC(C)c1nc(N(C)S(C)(=O)=O)nc(-c2ccc(F)cc2)c1/C=C/[C@@H](O)C[C@@H](O)CC(=O)O", "note": "[Rosuvastatin]", "AQP5-HiBiT luminescence": 1.04}, {"smiles": "CC(=O)[C@@]1(O)CC[C@H]2[C@@H]3CCC4=CC(=O)CC[C@]4(C)[C@H]3CC[C@@]21C", "note": "[Hydroxyprogesterone]", "AQP5-HiBiT luminescence": 1.04}, {"smiles": "O=c1[nH]c(=O)n([C@H]2C[C@H](O)[C@@H](CO)O2)cc1I", "note": "[Dendrid]", "AQP5-HiBiT luminescence": 3.38}, {"smiles": "COc1ccccc1OCC(O)COC(N)=O", "note": "(centres undefined) [Methocarbamol]", "AQP5-HiBiT luminescence": 0.888}, {"smiles": "OCCN1C[C@H](O)[C@@H](O)[C@H](O)[C@H]1CO", "note": "[Miglitol]", "AQP5-HiBiT luminescence": 0.902}, {"smiles": "CC(=O)O[C@H]1C(=O)[C@@]2(C)[C@H]([C@H](OC(=O)c3ccccc3)[C@]3(O)C[C@H](OC(=O)[C@H](O)[C@@H](NC(=O)c4ccccc4)c4ccccc4)C(C)=C1C3(C)C)[C@]1(OC(C)=O)CO[C@@H]1C[C@@H]2O", "note": "[Paclitaxel]", "AQP5-HiBiT luminescence": 2.1}, {"smiles": "O=C(O)c1cccnc1", "note": "[Nicotinic acid]", "AQP5-HiBiT luminescence": 0.719}]}]}
